The supplement of paper PMC11417369
The other results are listed elsewhere or left out.

What follows are sequences tested on PfSIP2 AP2 domain 1 (GST-tagged) (assay: gcPBM binding intensity (ln(normalized median fluorescence intensity)); higher = stronger DNA binding).
How it was run: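 Plasmodium falciparum DNA-binding domains carrying a GST tag were expressed in E. coli and applied for 1 h, at about 25 μg on average, to an Agilent 4 × 180k array. The array held primer-extended double-stranded 36-bp intergenic genomic probes together with negative controls, and binding took place in 1× PBS with 1% milk, 0.2 mg/ml BSA, 0.5% salmon testes DNA and 0.03% Triton X-100. An Alexa488 anti-GST antibody detected bound protein, and the array was scanned at 488 nm. Binding intensity is taken as the highest Masliner-normalised natural-log median intensity across replicate spots of either probe orientation.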

Row | Sequence | gcPBM binding intensity (ln)
1 | ATCATCCAAGATCTTACACACATATTAAATAAATAA [CACACA_site1473] | 7.23
2 | TTTTATTTTTTTAAATGTACACATATTAATGTAAGG [XGTACX_site319] | 7.19
3 | TAAAACATAAGAGACACACACACATATATATATATA [CACACA_site3643] | 9.69
4 | ATATTCTTTTTATGTGGTACTAATTTTTTTTTTTTA [XGTACX_site3791] | 6.96
5 | TTTTTAAAACATCACTGTACCCGTTATGGTGAACAT [XGTACX_site3483] | 7.71
6 | TTTTTAAATAATTGAAGTACACATTTCTCTAAGTTG [XGTACX_site2846] | 6.78
7 | AGTAAAAGAAAGCACACACACATGTATATAGGTATG [CACACA_site7759] | 6.9
8 | CATGTATTTTATATTACACACTAATATTATAGATAT [CACACA_site6819] | 7
9 | TTTTTTTTTTTGTTTAAACACACGAGCTTTCTTCTT [CACACA_site4085] | 6.89
10 | AAACATATAAACATATGTACATATAAACATATATAC [XGTACX_site5026] | 6.99
11 | AGCATATTATCATATTGTACATATTATAATATATAT [XGTACX_site3907] | 7.27
12 | ATATGTTTTGTTTACGTGCACTGCTTTGTTTATATA [GTGCAC_site9622] | 9.56
13 | ATTTCTCAATCTTAATGTACAAAAAAAAGGAAAAAG [XGTACX_site1210] | 7.13
14 | TAAAAATTTTAATAAACACACAATGAGATATTGAAT [CACACA_site5704] | 6.55
15 | AGCAAATCAGATAGTAGTACATTTAAATTAGACTTT [XGTACX_site4172] | 6.62
16 | TTTTTAATTATCTTTTCCCATGGTTTCTCCGTTTTT [XGTACX_negctrl_site39] | 6.97
17 | CAAAATAAAAATAACACACACATTTATATATATACA [CACACA_site1190] | 6.94
18 | AAAGAGAAATTTAAATGTACATTTGTTCTAAGTGTA [XGTACX_site3602] | 6.92
19 | AATTATGAAAAATCAAGTACAAACAAAATCATAATT [XGTACX_site5665] | 7

Row | Sequence | gcPBM binding intensity (ln)
20 | AAAAGATATATTATATGTACTAATTATATGATAAAT [XGTACX_site4192] | 7.01
21 | CATACACCCATACATACACACATACATATATATATA [CACACA_site8591] | 9.07
22 | ATATAATGTTTCACATGTACAAACAACACAAAAAAA [XGTACX_site1899] | 7.16
23 | TATTATATTCTGCTTACACACATATATATATATATA [CACACA_site3060] | 9.32
24 | TTAAAAAAAGAAAAAAAAAAAAAAAAAAAAAAACAT [CACACA_negctrl_site475] | 6.86
25 | TATAAAAATATTTCTACACACATTAATATTTATATA [CACACA_site6661] | 6.96
26 | GTTCTAAATATTATTGCATGTTGCACGTTTCTCTGT [TGCATGCA_site159] | 7.65
27 | GTGATAATTGCTTGGTGTACCCACATATATATATAT [XGTACX_site1636] | 9.03
28 | AGTATACGCAAACACACACACACAAAAAAAAAAAAA [CACACA_site426] | 7.1
29 | TATTATATTTATATTTGTACTTAAAATATTATACAC [XGTACX_site2881] | 7.14
30 | AAATAAGAAAATCATAGTACATAGGAATAGAAGAAC [XGTACX_site3135] | 7.59
31 | TACGTTCTGATATATACACACCTGGTATTAATTATG [CACACA_site7113] | 7.07
32 | AGAAAAATTATATATACACACTTATATTTATATATA [CACACA_site5555] | 6.84
33 | TTTTTTTTTTTAAATTGTACTTATTTTATATTATAT [XGTACX_site1077] | 7.24
34 | AATGTCATGATACATACACACACATACACATACACA [CACACA_site8665] | 7.16
35 | ATATCTTATTTTCCTTGTACTTATTTCATAATTACA [XGTACX_site3894] | 7.48
36 | TATTAAATATTGTAATGTACATATATAATATAATAT [XGTACX_site1809] | 7.18
37 | AATTTCCCATATTACACACATACTATGATATATAAA [CACACA_site3834] | 7.1
38 | CAATAAACCATTTTTTGTACATAAAAATAGGTATTG [XGTACX_site1892] | 6.84

Row | Sequence | gcPBM binding intensity (ln)
39 | TAAATATGTATAAATTGTACAAAATATATGAATAGT [XGTACX_site5659] | 7.26
40 | ATACCAAATGAATAATGTACATACGAACATACATAT [XGTACX_site1301] | 7.07
41 | GTACATTGTAAGGATGGAAAAGCTAAACATTATAAT [XGTACX_negctrl_site339] | 6.99
42 | ATATTTTTAACCAAGGACACAATTCTTGTATTGTTA [CACACA_negctrl_site1326] | 6.94
43 | TAAGTCGTTATAAGCACACACATAAATAAAAATAAA [CACACA_site1574] | 7.09
44 | AAGGGTTATAAAAATTGTACTTTTTTTATTTTTTTT [XGTACX_site1313] | 6.71
45 | TCAATTTTTTAATGTTGTACTTTGTAAAAAAAAATA [XGTACX_site8481] | 7.11
46 | ATATATTTATATAGGTGTACATATTTTGCTATTCAA [XGTACX_site5199] | 6.96
47 | CAACCTCATAATATTTAACACACAAAATTATATGTA [CACACA_site8496] | 6.93
48 | CATTTAGAATAAGGCACACATAAAGAACACTTTCCA [CACACA_site130] | 6.86
49 | TATTCTGGTGTAAATGCACACAGAAGAAGAAAAAAA [CACACA_site9225] | 7.29
50 | AAGGACACCTTCAAAACACACATACAAATAAATAGA [CACACA_site5771] | 7.16
51 | TTCTGTTGGAATATATGTACATAATAAAAAAAAATA [XGTACX_site1741] | 7.31
52 | TTTTTTTTTTTTGTAATACACACCACTATATGTTAT [CACACA_site1844] | 7.02
53 | AATAAATAAAAAAAAAAAAAAAAAAAAAAAAAAAAA [XGTACX_negctrl_site343] | 7.05
54 | TGTAGTCTGGAGAAAAGTACACAGTATCTGGTAACA [XGTACX_site2010] | 7.12
55 | AGTTTTATAAAAATATGTACTTATATACACATGTAT [XGTACX_site4022] | 7.11
56 | TATGGCAAAACATTCACACATATTTATATATGTGTA [CACACA_site5588] | 6.76
